Test results reported in the RNAGym collection of RNA variant scans (doi:10.7554/elife.90254).
The source gives no read counts; variants with many changes may rest on few reads.

B1: LINE1-mini (parent)
chain: GGCAGAGCUCAACACAGCGUGGCAAAGUGGCUGUGGCUAGACUGCC

Variants of: B1
Experiment: self-cleavage, relative activity (ratio to wild type); higher = more cleavage; in vitro, sequencing; the parent is a self-cleaving ribozyme

Variant	self-cleavage
G19A G27A U38A	0.12
C3U A26C G44C C45A	0.02
A11G A26C C31A G33A	0.02
A4C G17U U32A	0.22
G1A G5A A16G	0.15
G1U G5C U28G	0.03
C13G G19A G35A U43G G44C	0.04
A11C A25G C37A	0.02
G1C A14U A16C	0
G7U A11G G22C C23G G36A C46G	0
A4G A11U A12C A14C C23G U32A	0
G17C U20C G22A A39U	0.23
G2U G21C G27A A39U	0.04
G5U A25U G33A	0.04
C10U A26C G29C G36U	0.04
G17U U20G A24C U43G	0.04
C8A A12G G36U	0.07
G2C A25C C31G	0.06
A4G U9A G19C G33A C37A	0.16
A12G C13G C15U G17U G21C A24G	0.05
A11G C23U G36U C45G	0.02
G2A A24G C42U	0.47
C13U G22U G30A	0.36
G36U A39U G40U	0.08

Variant	self-cleavage
C3U G5U U9C U20A G22A G27C	0.01
G1C G5C C15G A26C	0
A12G G30C A39C	0.01
C8U C13G G17U C23G U28A G35U G36C A41U	0.07
A11G A24U C42A	0.02
A6U C8A A12U C18A G36C C45A	0.02
C3A C13U G17A A26C G36C	1.44
G5U C18G G27U G40A	0.1
C18U U34C G35A U38C	0.03
A12U A25G G36A C37A	0.03
C3U C10U G19A G21A G40U	0.1
C3G A4G C42A	0.12
A25G G33C G36C	0.02
C18G G21A U34A	0.01
G21C G27A U28A G30A C31G U32A	0.58
C15U G17U G27C U28C	0.16
G5A C15G G36A C42U	0.1
U20C G22U G40U	0.11
A11G C18U G22C A24G U32C G36U C46G	0.01
G7A C15A U28A	0.13
C3A A26U U32A G35C A41G	0.04
A11G G21A G29C	0.02
G1U C8U U20C	0.02
G27U G36C C45U	0.05

Variant	self-cleavage
G5C A25U C31U G36C	0.03
C8U G17U U20C	0.15
A14U C23U G36C	0.05
G1U C15A A25G C37G	0.04
A11C C15G G19A	0.02
C13U C15A C18G U28A	0.03
G5U A14U C15U G19C G36U	0.04
G2C U9G U38G C45G	0.02
G7U C8G U9G C13A A16U G27U	0.02
A6C C23A U43G	0
C3G G21U G40C	0.17
G5U G7U G22A	0.29
A6U G27A U28A G30A A39U	0.52
G1C C13G C15G	0.02
A6G G29A A41U	0.12
C15G U32C C45G	0
A24G A39C C46A	0.07
C8G C31A A39G	0.15
A6U C10A A12U G21A G40U	0
C15G G27U G29A	0.09
C3U C15G C18U G27C	0.02
G5U U20C A41G	0.21
G2C A6G U32A C45U	0.03
C13A G17A C31U G35C	0.03

Variant	self-cleavage
G1A A4G C31A	0.05
C23G U38A A39U	0.49
A4C G19U A41G	0
A11G G17U G40C C45G	0.01
U9C G21A G27U	0.03
G1A G2U A11U U43A	0.01
G5U C10U G21A C23A C37G	0.01
C23G G29U C46A	0.43
U20A G21U A25C G33A U38G	0
A6G G17U A26C G30U A39C A41C	0.03
G22U G40U G44A	0.1
C3G C15U U32C G40U	0.18
G29U U32C C46U	0.17
A14U C15A U38A G44U	0.06
A16G C23A G30A G35A	0.01
C15G G19A U38A	0.12
A4C A16U G29U G35A	0.06
C15U G21A G29C G33U C46A	0.46
A11U U28C C42U	0.1
G1A G7A C8U G22U C23G	1
U9C G33A G40U	0.04
A4U A6U C18A C31A C46A	0.06
G2U U34C G40U A41G	0.02
G7A C8G A41C	0.08

Variant	self-cleavage
A12G G40U C46A	0.15
G33A C37U U38C	0.04
C18G G22U U34G C42G	0.02
C3U C8G G17U G21C	0.11
U9G A26G A41C	0.02
A4G U34C G36C	0.01
G21U A25U G35C	0.02
C10A G21C A39C	0.09
G1U C3G C18G C31G	0.01
C10G C31A C46A	0.04
G1A G2A C23A A25G	0.43
G22C G40A G44C	0.15
A11U G27C U32C	0.02
G7C C8A G40A	0.23
C15U C42U C45G	0.04
C8U C10U G17C A25C G33A C45A	0.06
A12G G17U C31U G33A	0.04
A26U C31G U34A	0.01
G7C G22U U43C C46G	0.43
A11U C23A C31A	0.05
G2C A6G C13U G29A	0.13
G7U G29C C37G	0
U9G G29U U32C	0.01
G7U G27U G35C C46G	0.1

Variant	self-cleavage
G2C G5C G17A C42G G44U	0.01
U20A G21A A24U C31G	0.02
C8A A11G C15A G17U A25G	0.02
G2C G21C U43C	0.05
C3A C15U G27A	0.33
C3A C8G G30U	0.13
U20G U28A G36U C46G	0.2
C15G A25C C37G A39G G40U C46A	0.01
C23A U34G G35A C37A G44A	0.02
C23A G27U C46G	0.78
G7C A12G A25U G36C C37U	0.01
A14G G19A U28C	0.34
C13U G19C A25U	0.07
G2A G21C C23A A24U G29A U34C G40U C42A	0.16
G17U G21U C37U	0.06
C13A G19A G33U G35U	0.05
C15U G33U C45A	0.09
G1U C13U G44U	0.08
C13A U20C U28C C31A A41G C45G	0.02
G17A G27C G30A	0.73
G1A A14G A24U	0.03
A11C G35C C37U	0.01
A6G C10U A24U	0.03
G7A C10A G17A A26G G33U U34A	0.01

Variant	self-cleavage
C10A G33U C42U C45A C46A	0
C10A G19A G21C G36A	0
G5A A14U C15G C23U A24C	0.3
C18A G19C C37A	0.05
C8A G33C C37G	0.28
G19U G22U C37U	0.02
C3U A6G A14C G21U	0.04
G17U G35C C45G	0.04
C23A G33U C37A	0.1
G1C A6U G19A U20A A25C G30A	0.03
C8G A16C C31G U32G	0.02
C3U G35A U43A	0.04
C15A C18U U38A	0.12
G2A U20A G33C U43A	0.03
U9C C31A G44U	0.01
U9G G17A G19C G27C C31U	0.05
G17U G21A C23U	0.28
G7C U9A G27U U32G A41C	0.01
C10G A24C G33C	0.03
C31A G40U C42U	0.04
A11C C15U C31U A39G C45G	0.01
G2A A12G A14C C15U G17A G22C	0.02
A12C C18G G27C C37A	0.02
